We go through 167 variants from the RNAGym collection of RNA variant scans (doi:10.1093/nar/gkz1192).

The source gives no read counts; variants with many changes may rest on few reads.

Sequences and labels used below:
B1: CPEB3 Ribozyme (parent)
chain: UAACAGGGGGCCACAGCAGAAGCGUUCACGUCGCAGCCCCUGUCAGAUUCUGGUGAAUCUGCGAAUUCUGCUGUAUAUCUC

The data set covers variants of B1. Briefly: self-cleavage, relative activity (ratio to wild type); higher = more cleavage; in vitro, sequencing. An outline of the steps:
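Barcoded CPEB3 ribozyme mutants, produced by rounds of error-prone PCR, self-cleaved while being transcribed with T7 RNA polymerase for 5 hours at 37°C and during a subsequent 15 min DNase I step before EDTA was added. Sequencing of template-switched cDNA on Illumina gave cleaved and total reads, and DNA sequencing assigned barcodes to variants. Each variant's relative activity is its cleaved/total read fraction divided by the unmutated ribozyme's fraction, averaged across three batches. A variant needed a minimum of 5 reads.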
A2U A45G U78C: the self-cleavage was 0.49.
Regarding A2U U26C A35U G46A U67C U74C U76C, the self-cleavage came out at 0.05.
To A3C G9C A28U A64U U67C U72A belongs 0.08.
With A3G A5G A21G U26C U48C, the self-cleavage stood at 0.29.
To A2U G7U A35G belongs 0.38; to A2U A13G U31C U43C U60C, 0.23; to A2U A13U A28U G73C, 0.71.
For A3G A13G A35G A77U, the self-cleavage came to 1.06.
For the variant A3C U43C U60C, the self-cleavage is 0.04.
As for A2U U41C A47U, the figure is 0.8; as for A2U A15C A35G U43A U48A U67C U76A, 0.14; as for A3G A5U A18G U25A A57G U72C, 0.06.
A2U G9A A15U A35G U41C: the self-cleavage was 1.05.
Take A3G A13U A28U C40U: the self-cleavage was determined as 0.56.
Consider A3G A5G A13U U41C A65G A75G, for which the self-cleavage was 0.38.
As to A3G A5G A28U U31A A47C U60C, the self-cleavage was found to be 0.24.
For the variant A3G A5G G9U U41C U78C U80A, the self-cleavage amounted to 0.56.
Regarding A3G A13G U69A A77G, the self-cleavage was found to be 0.61.
As for A3C C17U C39A, the self-cleavage was 0.06.
As to A3C U25C G63A U78C, the self-cleavage is 0.14.
On to A2U U41G U48C G70A, for which the self-cleavage worked out at 0.1.
To A3C A20G U31G U58A belongs 0.28.
Take A3C U25C A35U: the self-cleavage was 0.54.
Consider A3G A5G G24A U26C U48C U60C U76C, for which the self-cleavage came to 0.06.
In the case of A2U G9A U51C, the self-cleavage was 0.44.
As to A3C U54C A64U A65C A75U, the self-cleavage was determined as 0.18.
With A3C C4G A21C U78C, the self-cleavage stood at 0.14.
Consider A2U U26A A28G U69C, for which the self-cleavage was 0.22.
For the variant A2U A28G U78A, the self-cleavage worked out at 0.77.
For A3C A20G U66C U76G, the self-cleavage came out at 0.42.
To A2U A28G A35C A47G U74C belongs 0.51; to A3G A13G C40U A75G, 0.61.
With A2U A57G U66C U74C, the self-cleavage came to 0.19.
In the case of A3G A13G A45U A64G U66C U76C, the self-cleavage is 0.41.
In the case of A2U A15U A35U A65U U66A U67A A75U, the self-cleavage is 0.12.
On to A3G A5G A45G U72C, for which the self-cleavage worked out at 0.41.
As for A3C G10A U43C A56G U78A U80C, the figure is 0.08; as for A3G A13U A28U U41A U48C G61A U66G, 0.24; as for A3G A13G A56G U72C, 0.91.
For A2U C17U A18U U41C A65G U80C, the self-cleavage was determined as 0.06.
A3C U31C A35G U49A U51C G55A: the self-cleavage is 1.23.
As for A2U C39G C40G U41C, the self-cleavage is 0.26.
To A3G A13G U26C U54A U69A U72A belongs 0.15; to A3C G8A A18G A47G G63A A64G U72C, 0.04; to A2U U48C U80A, 0.46.
To A3G A13G A20G C44U U54A A57G C71A belongs 0.11; to A3C A15G A47U U48C A57G U72G, 0.25; to A3C U69A U76C, 1.09.
A3C A5U U51G: the self-cleavage is 0.5.
A3G A5G G9A C40U: the self-cleavage was determined as 0.12.
Regarding A2U C50A U66C, the self-cleavage came to 0.23.
Consider A3G A13C A20G G22A U25C U74A, for which the self-cleavage came to 0.22.
For A3C A35G U43A U54C G73C U80C, the self-cleavage was 1.28.
With A2U A20G A21G A35U A64G U72A, the self-cleavage is 0.09.
With A3G A13G U41C U51A A65U U76A A77G, the self-cleavage is 0.3.
As for A2U U26A A35U U41C C59A U60C, the self-cleavage stood at 0.06.
For the variant A2U A35U U41C A65G U74A, the self-cleavage came out at 0.23.
In the case of A3C A13G A21G C29U G30C A35G U58C, the self-cleavage amounted to 0.54.
To A3C G7U A21U C50U U60C A64U belongs 0.19; to A2U A20G U66C U67C, 0.25; to A3G A5U G24C A56G, 0.44.
On to A3C A18U U41C, for which the self-cleavage was 0.81.
For the variant A3C A13G A15G U49A, the self-cleavage amounted to 0.36.
With A3C A13U A64U G70A C71U A75G, the self-cleavage came out at 0.14.
Take A3G A5U A13U G19A A28U A47U U54C: the self-cleavage came to 0.05.
For A3C G7U A13G A18G A28G U54C U80C, the self-cleavage is 0.17.
To A2U C11U U43C C50U A56U A75U belongs 0.03; to A3C C23U A45U, 0.18.
On to A3C A15G U25A A64G A75G U80C, for which the self-cleavage came out at 0.11.
Turning to A3G A5G C12U, the self-cleavage turned out to be 0.95.
As for A2U U60C U74C, the self-cleavage worked out at 0.55.
For A2U U60C U74A, the self-cleavage turned out to be 0.96.
Consider A3C A5G G22A A47G A56G U80C, for which the self-cleavage was found to be 0.6.
For A3G A5G G10A U54C U67C, the self-cleavage came out at 0.16.
Take A3G A13G C34A A64G: the self-cleavage stood at 0.11.
To A3C C34U C39U U51C U74A A77U belongs 0.62; to A2U A20G A56G, 0.89; to A2U A15U C32A U49A A56G, 0.06.
For A3G A5U U31A G53C U80C, the self-cleavage came to 0.62.
As to A3G A13G A20G U43A, the self-cleavage is 0.9.
Turning to A2U U51C U54A, the self-cleavage turned out to be 1.11.
Regarding A3G A5G U69C U76C U80A, the self-cleavage was 0.27.
Regarding A2U U25C U66C U67C, the self-cleavage worked out at 0.28.
Regarding A2U G6U U26C U54C A77U, the self-cleavage amounted to 0.3.
For the variant A2U A13U A18G U25G U43C G46A U58C, the self-cleavage was determined as 0.04.
On to A3G A13U A35G C44A A56U A65G U72A, for which the self-cleavage worked out at 0.36.
On to A3G A5U U25A U41C C44A U54C C68G, for which the self-cleavage is 0.29.
As for A2U A18U U26A A28G, the figure is 0.21; as for A2U U43A U72C, 1.08; as for A2U U25C U43A, 0.32.
Regarding A3G A5G U25C A57U U72C U78C, the self-cleavage turned out to be 0.11.
Turning to A3G A13G A35G A45G A57G U72C A75G, the self-cleavage turned out to be 0.42.
For A2U C17U A20U U25C A28U U78C, the self-cleavage came to 0.19.
A2U G8C C11A A35G U51C C62U U72C: the self-cleavage amounted to 0.13.
As for A2U U26A U54C, the figure is 0.62; as for A3G A13G G19A A20G C32U U60C A75U, 0.06.
To A3C G24A C38G A56G belongs 0.09.
As for A2U A21G U25C G36U A45U, the figure is 0.25; as for A3C G6C U43C U51A U54A, 0.14.
For A2U A20U G73A, the self-cleavage was 0.64.
To A2U A18U U26C G30A U41A A64U U72C belongs 0.05; to A2U C14U A15U G52U U69C, 0.34; to A3G A13G U54C C59U, 0.61.
On to A3C U25A A56G A57G, for which the self-cleavage came to 0.11.
As for A3G A5U U74C, the self-cleavage worked out at 1.14.
As for A3G A13G C17A C39U, the figure is 0.26; as for A3G A13G A20G G22C U31C A35U, 0.06; as for A2U U31A A47G U74C A75U, 1.05.
To A3G A13G U26A U41C U51G belongs 0.31; to A3C C23G A35G U67C A77G U80C, 0.07.
Regarding A3G A5G G6A U41A U51A C59U U76A, the self-cleavage worked out at 0.05.
With A3C G10A U31C U72A, the self-cleavage was 0.04.
To A2U A15G A64G belongs 0.58; to A2U U51A U54C A64G U76C, 0.97.
Take A2U G7U U43C U69C U78A: the self-cleavage came out at 0.05.
Turning to A2U A20U A57G, the self-cleavage was 0.17.
With A2U C11U G24A U31A U43C G46C, the self-cleavage worked out at 0.09.
As to A2U C12A A47G, the self-cleavage was 0.48.
To A2U A35U U49C A64C belongs 0.19.
Turning to A3G A13U A15G U25C U31C U51A U54A, the self-cleavage was determined as 0.
A3C A13G U25A: the self-cleavage amounted to 0.47.
To A3G A5G U72C C81A belongs 1.
To A3G A13G U48C belongs 0.31; to A3G A5C A15G A64G, 0.74.
Turning to A3C G8A G9U U25C U41C U67C U74C, the self-cleavage stood at 0.05.
A3G A5U U49C: the self-cleavage is 0.66.
In the case of A3G A5U C40A, the self-cleavage came to 0.21.
For A2U C38U A57G U74A U80C, the self-cleavage turned out to be 0.33.
As for A3G A5U G30C, the self-cleavage worked out at 0.44.
As to A3C G7A G9U C38U U49C U78C, the self-cleavage is 0.05.
As to A2U A15U A18G, the self-cleavage is 0.16.
For the variant A2U U25C U60C, the self-cleavage came out at 0.13.
As for A3G A13G U25C A45U U51C U54C, the figure is 0; as for A2U A56U C79A, 0.77.
As for A3G A13G G30C G53A U69C, the figure is 0.33.
Consider A3G A13G A20U C34G, for which the self-cleavage was found to be 0.65.
In the case of A2U C23U U67C, the self-cleavage was found to be 0.17.
Take A3G A13C A15G U49C A65G: the self-cleavage came to 0.31.
On to A2U C11U A15G U41A U69C, for which the self-cleavage was found to be 0.06.
To A2U A20U A28G belongs 0.18; to A2U A21U A28U, 0.18.
Consider A3C G8A G10A A15G A21U U48C A65U, for which the self-cleavage is 0.07.
Regarding A2U C40G U41C U72C A75G, the self-cleavage is 0.09.
Consider A3C U67G U76A, for which the self-cleavage turned out to be 0.71.
Take A3C A20G A21G C32A A64G: the self-cleavage came to 0.02.
For A3C A28G A35U U69C A75G, the self-cleavage is 0.17.
To A2U A20U U66C belongs 0.31; to A2U A15G A21G U72C, 0.83; to A3C A28G A64G U67C C68A, 0.08.
For the variant A3C C14U U60C, the self-cleavage was 0.92.
For A2U A20U U26C, the self-cleavage is 0.2.
Regarding A3G A13G A64G C79A, the self-cleavage came out at 1.01.
For A3G A13U A28U A56G, the self-cleavage is 0.71.
For A3G A5G A15G A35G, the self-cleavage came to 0.76.
To A3G A5U U25C U41C belongs 0.66; to A3G A5G A47G A57C U72A, 0.38; to A2U U31A U49C, 0.2.
A3G A13G A15G U51G A57G U80A: the self-cleavage stood at 0.5.
On to A3G A5G G10C A20G A65U, for which the self-cleavage is 0.49.
For the variant A2U A15U U66A G73C, the self-cleavage was 0.51.
For A3C U25C A45G U67A, the self-cleavage worked out at 0.51.
Turning to A3C U51A G55U U58C A64G, the self-cleavage came out at 0.23.
As for A3G A5G A13U A15C A56U A65G, the self-cleavage worked out at 0.26.
For the variant A2U A15C C17A U25C U43C U69A, the self-cleavage amounted to 0.06.
For A2U C11G C23G G30A G52A A64G, the self-cleavage was determined as 0.05.
For A2U G19U A28G C32A A47G U74C, the self-cleavage was 0.06.
Turning to A2U U54G U69A U72C, the self-cleavage came to 0.47.
